Each structure is given as a SMILES string. Among all 150,000 compounds or so, about 540 (0.36%) showed an effect of 50% or more. The list shows a part of the results.

The test concerns Plasmodium falciparum. Description: Primary screen in NF54 nanoGlo assay, in single point, at 2uM, 72h; a lower Z score goes with more inhibition. The test is classed as functional, Erythrocyte. Particulars: timepoint 72 hour.
For `COc1ccc([C@H](C)NC(=O)N(C)CC(C)O)c(Br)c1` (stereo partly specified), the % Inhibition (as a rule, the relative decrease from the control value, in per cent) is 15% and the Z score is recorded as -1.94.
For `C[C@H]1Cc2cc(Br)cc3c(=O)c(C(=O)Nc4cccc5ccccc45)cn1c23`, in that order: -9% and 1.1.
For `Cc1ccc(O)c(C(=O)O[C@@H](C)C(=O)Nc2cc(C)no2)c1` the same measures were -25% and 2.25.
Regarding `COc1cc2c(cc1OC)[C@H](C)N(C(=O)CCc1nc(CS(=O)(=O)c3ccccc3)no1)CC2`, the “% Inhibition” value is listed as 0% and the Z score was -0.01.
For `Cc1ccncc1S(=O)(=O)N(C)c1ccc(N2CCOCC2)nc1` the same measures were -7% and 0.82.
For `COc1ccc(C)c2sc(N(Cc3cccnc3)C(=O)c3ccn(C)n3)nc12`, in that order: -12% and 2.
For `CC[C@@](C)(CNC(=O)CC(C)(C)C)N1CCOCC1`, in that order: -10% and 1.26.
For `C#CCN(C)C[C@@H]1C=C(C)[C@H](Cc2nnc(-c3ccccc3)o2)C[C@H]1C(C)C`, the “% Inhibition” value worked out at 10% and the Z score is -1.16.
For the molecule `COC[C@H](C)NS(=O)(=O)c1ccc(C)cc1Cl`, the “% Inhibition” value is reported as -2% and the Z score came to 0.3.
For `O=C(CC1CCCC1)N1CC(CN2C(=O)CCC2=O)C1`, in that order: -7% and 1.34.
For `CCc1noc2ncnc(NCCC3=CCCCC3)c12` the same measures were -18% and 2.1.
For `COC1CC(NC(=O)C2(OC)CCOCC2)C1(C)C` (stereo unspecified), in that order: -21% and 4.13.
Take `CCN(Cc1cc2ccc(C)cc2[nH]c1=O)C(=O)C1CCCCC1`: the “% Inhibition” value was determined as 28% and the Z score is on record as -3.16.
With `COc1ccccc1N1CC[C@H](C)N(Cc2ncc(-c3ccccc3)o2)CC1`, the “% Inhibition” value is on record as -19% and the Z score is listed as 2.01.
For `CCCn1ccnc1CN1CCCn2nc(CNC(=O)N(C)C)cc2C1` the same measures were -12% and 1.2.
For `N#Cc1cc(Cl)c(C(=O)O)c(Cl)c1` the same measures were -14% and 1.78.
For `CN(Cc1ccco1)S(=O)(=O)c1ccc(-c2ccc(=O)[nH]n2)o1` the same measures were -3% and 0.64.
With `C=CCNC(=O)c1cccc(S(=O)(=O)N[C@@H](C)CN(CC)CC)c1`, the “% Inhibition” value was -4% and the Z score is recorded as 0.33.
For `CCCc1noc(CNc2cc(F)ccc2OCC2CC2)n1` the same measures were -7% and 0.97.
For the molecule `O=C(Nc1ccn(CC(F)F)n1)c1cscn1`, the “% Inhibition” value is on record as -11% and the Z score was 2.18.
For `CCOC(=O)N1CCN(Cc2cc(O)c3cccc(Cl)c3n2)CC1`, in that order: -12% and 1.18.
Regarding `COC(=O)[C@@H]1C[C@@H](O)CN1CC(=O)Nc1ccc(C)cc1Cl`, the “% Inhibition” value is -3% and the Z score was found to be 0.21.
`Cn1c(=O)c2c(n(C)c1=O)n(CC(=O)NC(C)(C)C)c(=O)n2C`: the “% Inhibition” value is reported as -12% and the Z score was 1.41.
For `CC(=O)Nc1cccnc1NC(=O)[C@@H]1CC[C@H](CN2CCOCC2)O1`, in that order: -10% and 1.85.
`CC1=CCCC(C)C1CNCc1cccc(CS(C)(=O)=O)c1` (stereo unspecified): the “% Inhibition” value turned out to be 2% and the Z score is reported as -0.22.
`Cc1ccc(CN2CCC3(CC2)c2nc[nH]c2CCN3C(=O)C2CCC2)cc1C`: the “% Inhibition” value is given as -14% and the Z score stood at 1.47.
For `CCC(N)C(=O)NC(C)c1ccc(Cl)s1` (stereo unspecified) the same measures were -12% and 1.66.
As for `Cc1cc(CS(=O)(=O)N2CCN(Cc3ccccn3)CC2)no1`, the “% Inhibition” value is reported as -6% and the Z score is reported as 0.72.
Consider `CC(c1ncc(Br)cn1)N1CCC(NS(C)(=O)=O)C1` (stereo unspecified), for which the “% Inhibition” value is listed as -11% and the Z score was 1.59.
`Cc1cc(C)cc(NC(=O)Nc2nnc3ccccn23)c1`: the “% Inhibition” value is given as -6% and the Z score is reported as 0.68.
In the case of `Cn1ccc(C(=O)N[C@@H](Cc2ccncc2)C(=O)OC(C)(C)C)n1`, the “% Inhibition” value is -6% and the Z score stood at 0.88.
For `Cc1nc(-c2ccncc2)nc(Nc2cn[nH]c2)c1C` the same measures were -7% and 0.68.
Turning to `CC1(C)CN(C(=O)Nc2nc3ccccc3s2)CC[S@@+]1[O-]`, the “% Inhibition” value was -7% and the Z score is recorded as 0.86.
For `Cc1c[nH]c(CN2CCN(c3ncccn3)CC2)c(C)c1=O` the same measures were -9% and 1.18.
For `C[C@H]1CN(C(=O)Nc2ccncn2)CCCO1`, the “% Inhibition” value is listed as 14% and the Z score is -1.4.
On to `CCc1noc(NC(C)=O)c1-c1ccc(OC)c(S(=O)(=O)NCc2ccc(C)cc2)c1`, for which the “% Inhibition” value is -1% and the Z score is 0.12.
For `CCc1cc(N2CCC[C@H](c3nnc(CO)n3C)C2)nc(CC)n1`, in that order: -1% and 0.09.
For `C[C@@]1(C(F)F)CN(CC(=O)Nc2ccc3c(c2)CCC3)CCO1`, in that order: -4% and 0.77.
For `CC(C)(C)OC(=O)NC[C@H]1CCCN1c1ncc(Cl)cn1` the same measures were -20% and 2.82.
As to `CC(C)c1cnc(COc2ccccc2C(N)=O)o1`, the “% Inhibition” value was 5% and the Z score is given as -0.65.
Regarding `CCC(NC(=O)N1CCC(C(=O)N(C)C)C1)C1CC1(C)C` (stereo unspecified), the “% Inhibition” value is recorded as 4% and the Z score is reported as -0.47.
For `Cc1ccc(S(=O)(=O)c2ncccc2CN2CCN(c3ncccn3)CC2)cc1`, in that order: -17% and 1.54.
Consider `COCCC1(CNS(=O)(=O)[C@H]2C[C@@H](C(=O)OC)C2)CCCC1`, for which the “% Inhibition” value is -33% and the Z score stood at 3.93.

The values are drawn from ChEMBL document CHEMBL4888484, “Replenishing the malaria drug discovery pipeline: Screening and hit evaluation of the MMV Hit Generation Library 1 (HGL1) against asexual blood stage Plasmodium falciparum ,using a nano luciferase reporter read-out” (2022).
